Source: PubChem BioAssay AID938 (National Center for Advancing Translational Sciences (NCATS), 2007)
Among all 73,000 compounds or so, about 1,800 (2.5%) were called active. This list was built around the results that the source calls inconclusive (neither active nor inactive); the mix of calls is not that of the screen. The call rests on the fitted dose curve; in most records, active means well fitted activation curve with a large enough effect; inconclusive means small, poorly fitted or top-dose-only effect; inactive means no such curve, though single readings can be large or run the other way. Potencies of inconclusive entries are left out as doubtful fits.

Experiment: qHTS Assay for Agonists of the Thyroid Stimulating Hormone Receptor: Activators of Intracellular cAMP Concentrations in Parental HEK 293; further: nearly all actives have a fitted effect of over 55% in size; on activation: % of control where 0% means no effect
Settings: parental HEK293 CNG cAMP sensor, membrane potential fluorescence; activation: at 57.1 µM (top of the series) unless noted
Method in brief: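 Counterscreen for endogenous-receptor signalling: CNG-channel HEK 293 cells report cAMP rise by membrane depolarization. After 60 min dye equilibration with 100 uM RO 20-1724, compounds incubated 30 min before bottom-read fluorescence at 590 nm.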
Potency means the concentration at half of the fitted maximal effect; tags describe the fitted curve by direction and shape.

Row | Structure (SMILES) | Potency | activation
1 | O=c1cnc2cnc(OCc3ccccc3)nc2n1Cc1ccc(F)cc1 | inconclusive [activator, partial curve] | 
2 | COc1ccc(O[C@H]2C=C[C@@H](c3ccccc3)O[C@H]2CO/N=C2/c3cc(OC)ccc3O[C@@H](c3cccc(OC)c3)[C@H]2O)cc1 |  | inactive: -0.705% [at 11.4 µM]
3 | Cc1ccnc(NC(=O)COc2ccc3oc4c(c3c2)CCCC4)c1 | inconclusive [activator, partial curve] | 
4 | O=C(NCc1cccs1)C1CCN(S(=O)(=O)c2ccc(Br)s2)CC1 | inconclusive [activator, single point] | 
5 | c1coc(-c2nnc(SCc3cn4ccccc4n3)o2)c1 |  | inactive: 5.08%
6 | O=C(CCN1CCN(c2ccccc2F)CC1)Nc1ccccc1F |  | inactive: 29.1%
7 | O=C(NCc1ccc2c(c1)OCO2)c1ccc(COc2cccc(Cl)c2)o1 | active: 20 µM | 
8 | O=c1c2ccccc2nc(SCc2cc(F)cc3c2OCOC3)n1Cc1ccco1 | inconclusive [activator, single point] | 
9 | COc1ccc(CN(C(=O)c2ccco2)c2ccc(C)cc2)cc1OC | inconclusive [activator, single point] | 
10 | CCc1ccc(N(CC(=O)NC2CCCC2)S(=O)(=O)c2c(C)noc2C)cc1 |  | inactive: 24.6%
11 | Cc1ccc(S(=O)(=O)N2CCC(C(=O)NC3CCCCCC3)CC2)cc1 |  | inactive: 1.74% [at 11.4 µM]
12 | O=C1OC(O)C(C(Cl)Cl)=C1Cl (configuration not stated) |  | inactive: 1.06%
13 | CN1CCN(CCCNN)CC1 |  | inactive: 5.26% [at 11.4 µM]
14 | COc1ccc(C)cc1NC(=O)c1cc2ccccc2o1 | active: 20 µM | 
15 | Cc1cc(C)n2cc(CSCc3ccco3)nc2n1 |  | inactive: 16.2%
16 | O=C(c1cccc(F)c1)N1CCC2(CCCN(c3cccc(-c4ccccc4)c3)C2)CC1 | active: 1.26 µM | 
17 | CCN(CC(=O)Nc1ccc2c(c1)CCC2)Cc1nc2ccccc2c(=O)[nH]1 | inconclusive [activator, single point] | 
18 | COc1cc(CN2CCC(C(=O)NC3CCCC3)CC2)cc(OC)c1O |  | inactive: 3.9%
19 | Cc1csc(NC(=O)CSc2nnc(Cc3cccn3C)n2CCc2ccccc2)n1 | inconclusive [activator, partial curve] | 
20 | Cc1ccc(C(O)c2nc3ccccc3n2C(C)C)cc1 (configuration not stated) | inconclusive [activator, partial curve] | 
21 | COc1ccc(C(NC(=O)CNC(C)=O)C(=O)Nc2ccc3c(c2)OCCO3)cc1 (configuration not stated) | inconclusive [activator, single point] | 
22 | O=C(c1ccccc1)N1CC(COc2ccccc2)OC(c2ccco2)O1 (configuration not stated) | inconclusive [activator, partial curve] | 
23 | O=C(O)C/C(=C\c1ccco1)C(=O)O | inconclusive [activator, partial curve] | 
24 | N#CCCN(CC#Cc1ccccc1)OCc1ccccc1 | inconclusive [activator, partial curve] | 

Row | Structure (SMILES) | Potency | activation
25 | O=c1cc(-c2ccco2)oc2ccc(Cl)cc12 | inconclusive [activator, single point] | 
26 | COc1ccc(C(NC(C)=O)c2ccc3cccnc3c2O)c(OC)c1 (configuration not stated) |  | inactive: -1.43%
27 | COc1ccc(NC(=O)Nc2cccc(C)n2)cc1 | inconclusive [activator, single point] | 
28 | CC(=O)c1c(C)nc(-c2ccc(Cl)cc2)nc1NC(=O)C(C)C | inconclusive [activator, partial curve] | 
29 | O=S(=O)(Nc1cccnc1)c1cccs1 | inconclusive [activator, single point] | 
30 | O=C(Nc1nc(-c2ccc(Cl)s2)cs1)c1ccncc1 | inconclusive [activator, single point] | 
31 | Cn1c(=O)c2c(n(C)c1=O)=NC1(CCCCC1)N=2 | inconclusive [activator, single point] | 
32 | CCOC(=O)c1ccccc1NC(=O)CSc1nc2ccccc2o1 | active: 25.1 µM | 
33 | Cn1c(/C=N/c2nc3ccccc3[nH]2)nc2ccccc21 | inconclusive [activator, single point] | 
34 | CCC(C)C(NC(=O)C1CCC(C)CC1)C(=O)NCc1cccnc1 (configuration not stated) | inconclusive [activator, single point] | 
35 | COC(=O)c1cn(NC(=O)c2cccnc2)c(=O)c2ccccc12 | inconclusive [activator, partial curve] | 
36 | COC(=O)CCC(=O)Nc1sc2c(c1C#N)CCCC2 |  | inactive: 21.2%
37 | Cn1c(=O)c2c(nc(CN3CCOCC3)n2Cc2ccccc2)n(C)c1=O |  | inactive: -0.85%
38 | CCOC(=O)C1=C(c2ccccc2)NC(SCC(=O)NC2CCCCC2)=C(C#N)C1c1ccco1 (configuration not stated) |  | inactive: -2.28%
39 | CCNc1ncc2nc(-c3cccs3)c(=O)n(-c3ccccc3)c2n1 | inconclusive [activator, partial curve] | 
40 | Cc1ccc(NC(=O)CSC2=C(C#N)C(c3ccc4c(c3)OCO4)C3=C(CCCC3=O)N2)c(C)c1 (configuration not stated) |  | inactive: 6.57%
41 | COc1ccccc1C(=O)N(CN1CCCC1=O)c1cccc(Cl)c1 | inconclusive [activator, single point] | 
42 | Cc1c(C)n(Cc2ccccc2)c2ncnc(N)c12 | inconclusive [activator, partial curve] | 
43 | CCc1ccc(OCc2ccc(C(=O)NCc3ccccn3)o2)cc1 | inconclusive [activator, partial curve] | 
44 | Cc1noc(C)c1CSc1nnc2scc(-c3ccc(Cl)cc3)n12 | inconclusive [activator, single point] | 
45 | COc1ccccc1CN1C(=O)[C@@H]2C(CC(N)=O)NC3(C(=O)Nc4c3ccc(Cl)c4C)[C@@H]2C1=O (some centres not stated) |  | inactive: -1.79%
46 | CC(C)CCOc1ccc(C2(C)NC(=O)N(CN3CCOCC3)C2=O)cc1 (configuration not stated) | inconclusive [activator, partial curve] | 
47 | N#Cc1nc(COc2ccccc2)oc1NCCN1CCOCC1 | inconclusive [activator, single point] | 
48 | Cc1cc(C)c(S(=O)(=O)Nc2cccc3nsnc23)c(C)c1 | inconclusive [activator, single point] | 

Row | Structure (SMILES) | Potency | activation
49 | CCCn1c(CN(Cc2ccccc2)Cc2ccccc2)nc2c1c(=O)n(C)c(=O)n2C | inconclusive [activator, single point] | 
50 | Cn1nnc2cc(NC(=O)N3CC4(C)CC3CC(C)(C)C4)ccc21 (configuration not stated) | inconclusive [activator, single point] | 
51 | Cc1cc(C)c(NC(=O)NC(=O)c2cccc(F)c2)c(C)n1 |  | inactive: 7.42%
52 | COc1ccccc1Nc1ncnc2c1oc1ccccc12 | active: 31.6 µM | 
53 | O=C(NCCCN1CCN(c2cccc(Cl)c2)CC1)c1nc(-c2ccncc2)no1 | inconclusive [activator, partial curve] | 
54 | COc1ccc(-n2c(C)nc3c(cnn3-c3ccccc3)c2=O)cc1 | inconclusive [activator, single point] | 
55 | COCCn1c(=O)c(-c2cc(F)cc(F)c2)nc2cnc(Oc3ccc(OC)cc3)nc21 | inconclusive [activator, partial curve] | 
56 | CCOC(=O)C1CCN(S(=O)(=O)c2cccc(-c3cn4cccc(C)c4n3)c2)CC1 | inconclusive [activator, single point] | 
57 | CCOC(=O)Cn1c2ccccc2c2nc3ccccc3nc21 | inconclusive [activator, partial curve] | 
58 | Cc1cccc(Nc2nc(-c3ccccn3)cs2)n1 |  | inactive: -0.726%
59 | Cc1nc(NCc2ccco2)c(C#N)c2c1COC(C)(C)C2 | inconclusive [activator, single point] | 
60 | O=C(Nc1cccc(Cl)c1)N1CCN(Cc2ccccc2)CC1 | inconclusive [activator, single point] | 
61 | Cc1nc2cc(-c3ccccc3)ccc2o1 |  | inactive: 0.143%
62 | C=C(C)Cn1c(SCC)nc2ccccc2c1=O | inconclusive [activator, partial curve, poor fit] | 
63 | Cc1cc(Cl)ccc1OCCCC(=O)N1CCN(C(=O)c2ccco2)CC1 | inconclusive [activator, partial curve] | 
64 | FC(F)(F)c1cc(-c2ccc3c(c2)OCO3)nc(NCc2ccco2)n1 | inconclusive [activator, full curve] | 
65 | COc1ccc(OC)c(NC(=O)c2cn(C)c(=O)c3cc(OC)c(OC)cc23)c1 |  | inactive: 7.41%
66 | Nc1ccccc1-c1nnc(SCc2ccccc2F)[nH]c1=O |  | inactive: -4.32%
67 | CCOC(=O)c1ccc(NC(=O)C2=C(C)Nc3nc(CCCO)nn3C2c2cccc(C)c2)cc1 (configuration not stated) | inconclusive [activator, single point] | 
68 | O=P(CCNCc1ccco1)(c1ccccc1)c1ccccc1 | inconclusive [activator, partial curve] | 
69 | CCn1c(SCC(=O)c2ccc(NS(=O)(=O)c3ccccc3)cc2)nnc1-c1cccs1 | inconclusive [activator, single point] | 
70 | CCN(CC)S(=O)(=O)c1cccc(-c2nnc(SCCCC(=O)c3ccccc3)o2)c1 | inconclusive [activator, partial curve] | 
71 | C=C[C@@]1(C)CC(=O)[C@@]2(O)[C@@]3(C)[C@@H](O)CCC(C)(C)[C@@H]3[C@H](O)[C@H](OC(C)=O)[C@@]2(C)O1 | active: 0.0794 µM | 
72 | c1csc(-c2nc3nc4ccccc4nc3n2Cc2ccc3c(c2)OCO3)c1 |  | inactive: -7.54%
